This assay has as its target GTPase KRas (Homo sapiens) (UniProt P01116). The assay can be described thus: Covalent labelling of cysteine mutants by fragments, read by mass spectrometry (AID 2202238). The arrangement: protein at 5 µM with 500 µM competing thiol for 1.5 h. To be noted: KRAS G12D cysteine mutants, disulfide tethering, MALDI-TOF labeling, stronger effect = higher value, fragment at 500 µM.
Where [1] appears, read: measured here: G75C mutant labeling.
The mark [2] stands for this setting: measured here: H94C mutant labeling.
The mark [3] stands for this setting: measured here: I36C mutant labeling.
[4] abbreviates: measured here: L120C mutant labeling.
Where [5] appears, read: measured here: M67C mutant labeling.
Setting [6] is: measured here: M72C mutant labeling.
The mark [7] stands for this setting: measured here: N86C mutant labeling.
[8] abbreviates: measured here: P121C mutant labeling.
[9] abbreviates: measured here: S122C mutant labeling.
[10] abbreviates: measured here: S136C mutant labeling.
The mark [11] stands for this setting: measured here: G60C mutant labeling.
Setting [12] is: measured here: N26C mutant labeling.

The other results are listed elsewhere or left out. These are further read-outs of the screen, such as a control signal, another cell line or another target. No call is given for them.

Sequence of UniProt P01116 (P01116 whole entry, looked up, the tested form may be a part): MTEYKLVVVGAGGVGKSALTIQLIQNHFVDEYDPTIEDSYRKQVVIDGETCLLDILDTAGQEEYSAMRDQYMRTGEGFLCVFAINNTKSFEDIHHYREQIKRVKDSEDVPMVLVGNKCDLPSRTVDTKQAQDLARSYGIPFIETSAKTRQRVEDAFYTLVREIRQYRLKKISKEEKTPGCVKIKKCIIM

`CN(CCNC(=O)CCS)c1ccccn1` showed a percent labeling under setting [1] of 18.6%; a percent labeling under setting [2] of 30.9%; a percent labeling under setting [3] of 29.5%; a percent labeling under setting [4] of 21.7%; a percent labeling under setting [5] of 31.5%; a percent labeling under setting [6] of 19.3%. Besides, the percent labeling came out at 20.1% under setting [7], 28.8% under setting [8], 29.2% under setting [9] and 44.9% under setting [10].
As to `O=C(CCS)Nc1cc2c3c(c1)CCC(=O)N3CCC2`, the percent labeling reads like this: under setting [1], 8.5%; under setting [2], 23.1%; under setting [3], 20.5%; under setting [4], 14.4%; under setting [5], 21.7%; under setting [6], 58.7%. Besides, the percent labeling was determined as 5% under setting [7], 13.7% under setting [8], 17.2% under setting [9] and 33.6% under setting [10].
For `Cc1nn(-c2ccccc2)c2sc(C(=O)NCCS)cc12`, the percent labeling under setting [11] was 35.4%; the percent labeling under setting [1] came to 18.6%; the percent labeling under setting [2] came out at 21.1%; the percent labeling under setting [3] worked out at 25.7%; the percent labeling under setting [4] came out at 20.4%; the percent labeling under setting [5] was determined as 9.4%. Also, the percent labeling stood at 76.1% under setting [6]; 34.7% under setting [12]; 13% under setting [7]; 16.5% under setting [8]; 6.9% under setting [9]; 28.8% under setting [10].
As for `O=C(NCCS)C1(C(F)(F)F)CCN(Cc2ccccc2)C1` (configuration not stated), the percent labeling by setting is: under setting [11], 35.7%; under setting [1], 24.1%; under setting [2], 25%; under setting [3], 15.7%; under setting [4], 16.4%; under setting [5], 28.1%. The molecule further showed a percent labeling under setting [6] of 41.4%; a percent labeling under setting [12] of 32.3%; a percent labeling under setting [7] of 26.3%; a percent labeling under setting [8] of 16.2%; a percent labeling under setting [9] of 13.2%; a percent labeling under setting [10] of 28.7%.
For `Cc1cccc(C(CC(=O)NCCS)NC(N)=O)c1` (configuration not stated), the percent labeling is, setting by setting: under setting [11], 43.2%; under setting [1], 15.3%; under setting [2], 31.9%; under setting [3], 30.6%; under setting [4], 44.9%; under setting [5], 35.7%. For the same molecule, the percent labeling runs as follows: under setting [6], 29.1%; under setting [12], 38.1%; under setting [7], 27.3%; under setting [8], 37.3%; under setting [9], 34.1%; under setting [10], 43.4%.
With `O=C(NCCS)c1ccc2noc(-c3ccc(F)cc3)c2c1`, the percent labeling is 14.2% under setting [11]; 4.6% under setting [1]; 10.2% under setting [2]; 7.8% under setting [3]; 7.3% under setting [4]; 8.6% under setting [5]. This molecule came in with a percent labeling under setting [6] of 20.1%; a percent labeling under setting [12] of 26.3%; a percent labeling under setting [7] of 10.1%; a percent labeling under setting [8] of 15.6%; a percent labeling under setting [9] of 3.1%; a percent labeling under setting [10] of 9.6%.
Take `Cc1nc2ccccc2c(C)c1CC(=O)NCCS`: the percent labeling under setting [11] worked out at 29.3%; the percent labeling under setting [1] came out at 4.9%; the percent labeling under setting [2] was determined as 22.4%; the percent labeling under setting [3] was determined as 18.6%; the percent labeling under setting [4] was 36.2%; the percent labeling under setting [5] was 23.3%. Moreover, the percent labeling is, setting by setting: under setting [6], 16.3%; under setting [12], 27.7%; under setting [7], 16.8%; under setting [8], 19.1%; under setting [9], 13.5%; under setting [10], 38.4%.
Take `Cn1cc(C(=O)NCCS)c2ccccc2c1=O`: the percent labeling was 43.9% under setting [11]; 20.9% under setting [1]; 36% under setting [2]; 26.8% under setting [3]; 36.9% under setting [4]; 31.7% under setting [5]. For the same molecule, the percent labeling by setting is: under setting [6], 51.7%; under setting [12], 48.1%; under setting [7], 22.9%; under setting [8], 30.2%; under setting [9], 28.5%; under setting [10], 51.7%.
On to `O=C(CCS)NCCn1cncc1-c1ccccc1`, for which the percent labeling is, setting by setting: under setting [1], 14.1%; under setting [2], 29.3%; under setting [3], 37.1%; under setting [4], 42.3%; under setting [5], 39.8%; under setting [6], 31.7%. Besides, the percent labeling runs as follows: under setting [7], 13.8%; under setting [8], 36.5%; under setting [9], 32.6%; under setting [10], 61.3%.
With `CN(C)CCNS(=O)(=O)c1cccc(NC(=O)CCS)c1`, the percent labeling runs as follows: under setting [1], 21%; under setting [2], 46%; under setting [3], 52.8%; under setting [4], 42.3%; under setting [5], 45.6%; under setting [6], 42.8%. Further, the percent labeling is 70.1% under setting [7], 28.7% under setting [8], 36.6% under setting [9] and 52% under setting [10].
Regarding `Cc1ccn2c(CN3CCN(C(=O)CCS)CC3)c(C)nc2c1`, the percent labeling is 12.9% under setting [1]; 24.5% under setting [2]; 27.9% under setting [3]; 24.8% under setting [4]; 36.3% under setting [5]; 19% under setting [6]. Also, the percent labeling stood at 16.9% under setting [7], 22.4% under setting [8], 23.1% under setting [9] and 45.9% under setting [10].
For `O=C(CCS)N1CCN(Cc2noc(C3CC3)n2)CC1`, the percent labeling is, setting by setting: under setting [1], 9.2%; under setting [2], 29.7%; under setting [3], 37.4%; under setting [4], 28.8%; under setting [5], 39.6%; under setting [6], 22.8%. Also, the percent labeling reads like this: under setting [7], 29%; under setting [8], 36.5%; under setting [9], 36.3%; under setting [10], 53.4%.
Consider `O=C(NCCS)C1(C2CCCCO2)CCCO1` (configuration not stated), for which the percent labeling is, setting by setting: under setting [11], 23.4%; under setting [1], 9.4%; under setting [2], 26.6%; under setting [3], 18.3%; under setting [4], 28.4%; under setting [5], 24%. The percent labeling worked out at 13% under setting [6]; 29.7% under setting [12]; 21.2% under setting [7]; 26.1% under setting [8]; 29.1% under setting [9]; 39.7% under setting [10].
Take `Cc1ccc(-n2ccc(CNC(=O)CCS)n2)cc1`: the percent labeling came out at 10.5% under setting [1]; 29.5% under setting [2]; 24.4% under setting [3]; 27.3% under setting [4]; 23.4% under setting [5]; 36.3% under setting [6]. Further, the percent labeling stood at 11% under setting [7], 19.9% under setting [8], 21.5% under setting [9] and 34.5% under setting [10].
`COc1ccccc1C1(C)CC1C(=O)NCCS` (configuration not stated): the percent labeling reads like this: under setting [11], 52%; under setting [1], 20.1%; under setting [2], 35%; under setting [3], 21.8%; under setting [4], 23.6%; under setting [5], 17.4%. The molecule further showed a percent labeling under setting [6] of 35%; a percent labeling under setting [12] of 30.4%; a percent labeling under setting [7] of 24.2%; a percent labeling under setting [8] of 25.1%; a percent labeling under setting [9] of 9.8%; a percent labeling under setting [10] of 33.5%.
For `O=C(CCS)N1CCc2cc(Br)c(Cl)cc21`, the percent labeling is 31.2% under setting [1]; 43.1% under setting [2]; 24.5% under setting [3]; 11.8% under setting [4]; 20.5% under setting [5]; 55.1% under setting [6]. Moreover, the percent labeling worked out at 24.7% under setting [7], 15.2% under setting [8], 5.8% under setting [9] and 32.2% under setting [10].
Consider `O=C(CCS)NCCN1C(=O)Cc2ccccc21`, for which the percent labeling runs as follows: under setting [1], 7.6%; under setting [2], 18.8%; under setting [3], 24.1%; under setting [4], 23.2%; under setting [5], 21.8%; under setting [6], 13.9%. Further, the percent labeling was determined as 10.9% under setting [7], 22.9% under setting [8], 22.6% under setting [9] and 40% under setting [10].
Molecule `O=C(NCCS)c1ccc(C2CCCOC2)cc1` (configuration not stated) returned a percent labeling under setting [11] of 23.6%; a percent labeling under setting [1] of 13.9%; a percent labeling under setting [2] of 18.9%; a percent labeling under setting [3] of 12.8%; a percent labeling under setting [4] of 19.2%; a percent labeling under setting [5] of 16.3%. Moreover, the percent labeling by setting is: under setting [6], 47.9%; under setting [12], 33.2%; under setting [7], 17.3%; under setting [8], 11.9%; under setting [9], 9.4%; under setting [10], 21.1%.
On to `Cc1ccc(Cl)c2sc(NC(=O)CCS)nc12`, for which the percent labeling under setting [1] was 58.2%; the percent labeling under setting [2] was 24.6%; the percent labeling under setting [3] turned out to be 21.7%; the percent labeling under setting [4] was 24.8%; the percent labeling under setting [5] came to 16.3%; the percent labeling under setting [6] turned out to be 59.9%. In addition, the percent labeling was 32.5% under setting [7], 17.7% under setting [8], 12.8% under setting [9] and 30.4% under setting [10].
On to `CCc1[nH]c(-c2ccccc2)cc1C(=O)NCCS`, for which the percent labeling by setting is: under setting [11], 17.4%; under setting [1], 9.3%; under setting [2], 10.5%; under setting [3], 8.6%; under setting [4], 12.9%; under setting [5], 8.9%. In addition, the percent labeling by setting is: under setting [6], 26.5%; under setting [12], 38%; under setting [7], 6.8%; under setting [8], 22.7%; under setting [9], 8.6%; under setting [10], 17.7%.
Consider `O=C(CCS)NCc1cn(CC(=O)Nc2cc(F)cc(F)c2)nn1`, for which the percent labeling is, setting by setting: under setting [1], 10%; under setting [2], 15.3%; under setting [3], 24.8%; under setting [4], 15%; under setting [5], 26.4%; under setting [6], 20%. The percent labeling is, setting by setting: under setting [7], 8.3%; under setting [8], 14.4%; under setting [9], 14.3%; under setting [10], 26.7%.
Regarding `CC(C)COc1ncc(CNC(=O)CCS)cc1Cl`, the percent labeling reads like this: under setting [1], 10.5%; under setting [2], 20.6%; under setting [3], 23.6%; under setting [4], 15.9%; under setting [5], 21.7%; under setting [6], 48.1%. Also, the percent labeling is 20.2% under setting [7], 17.1% under setting [8], 13.9% under setting [9] and 30.7% under setting [10].
`CCC1CCc2sc(C(=O)NCCS)cc2C1` (configuration not stated): the percent labeling amounted to 18.4% under setting [11]; 10.6% under setting [1]; 10.4% under setting [2]; 7.9% under setting [3]; 13.2% under setting [4]; 8.6% under setting [5]. Moreover, the percent labeling under setting [6] came to 30.6%; the percent labeling under setting [12] came out at 18.3%; the percent labeling under setting [7] is 10.2%; the percent labeling under setting [8] stood at 11.7%; the percent labeling under setting [9] was 10.9%; the percent labeling under setting [10] was determined as 18.3%.

(Values after PubChem BioAssay AID2202238 (Ras Initiative Chemistry Research Team, Frederick National …, 2025).)
